Source: US10344060B2 (priority 2013, dated 2019)
Read-outs that look alike come from different tables or passages of the source. For some of these results: Part of at least one peptide drawing is inferred or uncertain, most often the ends. For some of these results: For at least one compound, name, drawing or mass did not settle the structure.

Legend:
Type in all cases: cell-based
[1] = target: mNav1.7 (Mus musculus, UniProt Q62205); details: PatchXpress, tonic block, mouse Nav1.7; read-out: PX mNav1.7 Tonic IC50
[2] = target: T1, hNav1.7 (Homo sapiens, UniProt Q15858); details: read-out: PX hNav1.7 Tonic IC50
[3] = target: rNav1.7 (Rattus norvegicus, UniProt O08562); details: PatchXpress, tonic block, rat Nav1.7; read-out: PX rNav1.7 Tonic IC50
[4] = target: T1, hNav1.7; details: read-out: IC50 (μM) Nav1.7
[5] = target: hNav1.3 (Homo sapiens, UniProt Q9NY46); details: IonWorks Quattro; Table 6; read-out: IC50 (μM) Nav1.3
[6] = target: T2, hNav1.4 (Homo sapiens, UniProt P35499); details: Table 6; for IC50: IonWorks Quattro, read-out: IC50 (μM) Nav1.4
[7] = target: T3, hNav1.5 (Homo sapiens, UniProt Q14524); details: IonWorks Quattro; Table 6; read-out: IC50 (μM) Nav1.5
[8] = target: T3, hNav1.5; details: PatchXpress, tonic; Table 11; read-out: PX hNav1.5 Tonic IC50
[9] = target: T2, hNav1.4; details: PatchXpress, read-out: PX hNav1.4 Tonic IC50
[10] = target: hNav1.6 (Homo sapiens, UniProt Q9UQD0); details: Table 15; read-out: PX hNav1.6 Tonic IC50

T2 sequence (P35499 whole entry): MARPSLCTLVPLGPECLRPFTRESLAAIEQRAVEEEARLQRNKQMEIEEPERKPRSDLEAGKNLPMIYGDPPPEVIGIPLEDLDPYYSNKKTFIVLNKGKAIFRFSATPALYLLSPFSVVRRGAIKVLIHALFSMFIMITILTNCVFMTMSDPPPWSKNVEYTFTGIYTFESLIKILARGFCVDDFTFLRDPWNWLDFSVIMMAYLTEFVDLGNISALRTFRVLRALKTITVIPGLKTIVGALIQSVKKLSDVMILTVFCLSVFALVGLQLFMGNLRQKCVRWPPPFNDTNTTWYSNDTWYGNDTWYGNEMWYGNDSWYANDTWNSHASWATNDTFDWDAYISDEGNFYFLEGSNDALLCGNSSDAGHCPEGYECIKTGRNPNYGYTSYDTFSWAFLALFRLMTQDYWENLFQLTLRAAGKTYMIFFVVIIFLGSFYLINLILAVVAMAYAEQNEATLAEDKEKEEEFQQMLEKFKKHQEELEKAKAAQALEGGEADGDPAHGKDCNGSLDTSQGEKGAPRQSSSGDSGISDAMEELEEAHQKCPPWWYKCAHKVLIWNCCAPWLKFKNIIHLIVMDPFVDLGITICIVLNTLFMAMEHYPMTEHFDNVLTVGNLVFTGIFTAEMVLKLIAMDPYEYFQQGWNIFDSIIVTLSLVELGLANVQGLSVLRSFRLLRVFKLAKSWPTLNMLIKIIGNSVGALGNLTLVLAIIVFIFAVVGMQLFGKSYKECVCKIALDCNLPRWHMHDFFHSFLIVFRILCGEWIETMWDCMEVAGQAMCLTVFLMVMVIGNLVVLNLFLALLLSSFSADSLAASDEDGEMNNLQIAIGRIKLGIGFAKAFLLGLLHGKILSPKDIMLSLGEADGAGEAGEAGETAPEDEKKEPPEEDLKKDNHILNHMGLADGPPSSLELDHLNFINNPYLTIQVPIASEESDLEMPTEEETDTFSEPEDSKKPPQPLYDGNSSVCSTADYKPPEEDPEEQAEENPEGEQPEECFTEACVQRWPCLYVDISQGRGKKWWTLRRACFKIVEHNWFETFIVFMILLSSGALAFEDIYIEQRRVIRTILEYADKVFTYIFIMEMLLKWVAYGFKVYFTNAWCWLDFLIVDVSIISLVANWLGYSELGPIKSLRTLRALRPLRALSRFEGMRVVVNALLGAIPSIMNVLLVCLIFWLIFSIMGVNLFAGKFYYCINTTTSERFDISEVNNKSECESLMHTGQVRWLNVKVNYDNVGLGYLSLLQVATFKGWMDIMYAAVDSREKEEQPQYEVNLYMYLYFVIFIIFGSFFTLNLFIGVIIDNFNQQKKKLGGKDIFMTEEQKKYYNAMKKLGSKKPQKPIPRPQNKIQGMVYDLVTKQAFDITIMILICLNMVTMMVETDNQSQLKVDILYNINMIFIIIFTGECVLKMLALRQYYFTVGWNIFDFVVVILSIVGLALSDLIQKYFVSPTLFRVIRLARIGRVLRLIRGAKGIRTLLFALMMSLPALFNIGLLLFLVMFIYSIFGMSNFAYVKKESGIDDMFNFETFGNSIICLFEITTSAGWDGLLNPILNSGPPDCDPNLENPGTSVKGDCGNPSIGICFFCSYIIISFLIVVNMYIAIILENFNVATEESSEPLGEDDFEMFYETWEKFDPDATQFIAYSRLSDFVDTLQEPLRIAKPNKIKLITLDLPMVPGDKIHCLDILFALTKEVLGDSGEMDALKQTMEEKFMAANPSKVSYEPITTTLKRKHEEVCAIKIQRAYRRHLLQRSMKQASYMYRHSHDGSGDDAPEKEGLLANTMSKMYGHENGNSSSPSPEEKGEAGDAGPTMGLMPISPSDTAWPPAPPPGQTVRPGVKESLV
T3 sequence (Q14524 whole entry): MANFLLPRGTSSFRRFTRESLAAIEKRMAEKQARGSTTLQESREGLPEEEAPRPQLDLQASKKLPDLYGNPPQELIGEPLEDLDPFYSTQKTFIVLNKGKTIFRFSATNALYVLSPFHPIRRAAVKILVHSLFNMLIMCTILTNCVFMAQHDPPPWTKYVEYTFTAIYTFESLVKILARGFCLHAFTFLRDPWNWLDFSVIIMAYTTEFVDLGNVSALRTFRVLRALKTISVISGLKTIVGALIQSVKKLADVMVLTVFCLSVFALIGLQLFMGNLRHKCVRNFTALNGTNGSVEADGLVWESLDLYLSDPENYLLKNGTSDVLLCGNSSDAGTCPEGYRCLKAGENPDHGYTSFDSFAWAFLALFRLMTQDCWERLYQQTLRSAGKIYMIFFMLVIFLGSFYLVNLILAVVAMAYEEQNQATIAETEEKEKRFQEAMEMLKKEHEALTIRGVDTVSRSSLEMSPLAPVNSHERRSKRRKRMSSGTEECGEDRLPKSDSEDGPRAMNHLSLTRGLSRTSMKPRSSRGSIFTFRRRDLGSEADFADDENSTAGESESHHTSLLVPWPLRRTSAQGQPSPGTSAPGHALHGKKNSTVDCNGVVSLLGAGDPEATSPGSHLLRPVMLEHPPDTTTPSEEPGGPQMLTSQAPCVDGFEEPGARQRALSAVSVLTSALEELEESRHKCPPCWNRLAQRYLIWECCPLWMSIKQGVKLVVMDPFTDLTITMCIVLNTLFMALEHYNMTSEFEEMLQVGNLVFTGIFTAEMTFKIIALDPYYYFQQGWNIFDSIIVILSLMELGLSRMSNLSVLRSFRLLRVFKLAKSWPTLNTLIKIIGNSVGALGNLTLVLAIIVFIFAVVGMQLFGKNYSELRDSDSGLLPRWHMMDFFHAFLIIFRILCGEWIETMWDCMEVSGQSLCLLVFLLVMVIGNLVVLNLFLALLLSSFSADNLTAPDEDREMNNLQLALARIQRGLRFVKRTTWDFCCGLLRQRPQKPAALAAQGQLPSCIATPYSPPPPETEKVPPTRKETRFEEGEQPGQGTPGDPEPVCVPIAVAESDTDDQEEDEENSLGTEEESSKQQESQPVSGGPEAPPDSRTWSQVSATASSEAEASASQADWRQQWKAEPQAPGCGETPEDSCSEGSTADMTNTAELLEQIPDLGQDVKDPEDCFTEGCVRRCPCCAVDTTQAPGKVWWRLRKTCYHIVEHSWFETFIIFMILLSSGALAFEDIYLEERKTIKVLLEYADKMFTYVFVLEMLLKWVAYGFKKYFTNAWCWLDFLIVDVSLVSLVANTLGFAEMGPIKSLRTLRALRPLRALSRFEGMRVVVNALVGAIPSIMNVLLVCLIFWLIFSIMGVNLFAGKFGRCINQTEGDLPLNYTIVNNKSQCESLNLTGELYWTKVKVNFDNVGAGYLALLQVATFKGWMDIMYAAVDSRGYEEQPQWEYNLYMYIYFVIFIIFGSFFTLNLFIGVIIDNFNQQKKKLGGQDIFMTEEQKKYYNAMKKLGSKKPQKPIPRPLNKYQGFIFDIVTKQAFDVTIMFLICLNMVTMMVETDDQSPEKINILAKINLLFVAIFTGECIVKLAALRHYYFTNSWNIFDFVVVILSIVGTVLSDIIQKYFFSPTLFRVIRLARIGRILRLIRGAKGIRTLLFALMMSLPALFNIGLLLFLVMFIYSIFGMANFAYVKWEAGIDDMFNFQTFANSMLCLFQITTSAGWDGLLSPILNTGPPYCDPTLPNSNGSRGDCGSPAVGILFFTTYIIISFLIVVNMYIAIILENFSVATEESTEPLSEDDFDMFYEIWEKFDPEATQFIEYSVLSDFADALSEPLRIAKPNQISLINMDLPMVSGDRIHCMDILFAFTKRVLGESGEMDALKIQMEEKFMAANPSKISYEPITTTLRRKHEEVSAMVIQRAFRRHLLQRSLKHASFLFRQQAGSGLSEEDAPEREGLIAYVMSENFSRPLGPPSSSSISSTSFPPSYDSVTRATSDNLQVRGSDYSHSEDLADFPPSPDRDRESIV

Work on `CCCC[C@@H]1NC(=O)[C@H](Cc2c[nH]c3ccccc23)NC(=O)[C@H](CCCCN)NC(=O)[C@H](CCC(N)=O)NC(=O)[C@@H](NC(=O)[C@H](Cc2ccc(O)cc2)NC(=O)[C@@H](N)Cc2cn(CCOCCOCCOCCOCCOCCOCCOCCOCCOCCOCCN)nn2)CSSC[C@@H]2NC(=O)[C@@H]3CSSC[C@@H](C(=O)N[C@@H](CCCNC(=N)N)C(=O)N[C@@H](CCCCN)C(=O)N[C@H](C(=O)N[C@H](C(N)=O)[C@@H](C)CC)[C@@H](C)CC)NC(=O)[C@H](Cc4c[nH]c5ccccc45)NC(=O)[C@H](CC(C)C)NC(=O)[C@H](CCCCN)NC(=O)[C@H](CSSC[C@H](NC(=O)[C@H]([C@@H](C)O)NC(=O)[C@H](Cc4c[nH]c5ccccc45)NC1=O)C(=O)N[C@@H](CC(=O)O)C(=O)N[C@@H](CO)C(=O)N[C@@H](CCCCN)C(=O)N[C@@H](CCCNC(=N)N)C(=O)N[C@@H](C)C(=O)N3)NC(=O)[C@H](CCCNC(=N)N)NC(=O)[C@H](CC(C)C)NC(=O)CNC(=O)[C@H](CCC(=O)O)NC2=O` [Atz(NPEG9)-[Nle6]JzTx-V(1-29)] yielded an IC50 [1] of 7.11 nM, an IC50 ([2]; PatchXpress, tonic block, human Nav1.7) of 4.3 nM and an IC50 [3] of 0.961 nM.
`CC[C@H](C)[C@H](NC(=O)[C@@H](NC(=O)[C@H](CCCCN)NC(=O)[C@H](CCCNC(=N)N)NC(=O)[C@@H]1CSSC[C@@H]2NC(=O)[C@H](C)NC(=O)[C@H](CCCNC(=N)N)NC(=O)[C@H](CCCCN)NC(=O)[C@H](CO)NC(=O)[C@H](CC(=O)O)NC(=O)[C@@H]3CSSC[C@H](NC(=O)[C@H](CCCNC(=N)N)NC(=O)[C@H](CC(C)C)NC(=O)CNC(=O)[C@H](Cc4cccc5ccccc45)NC(=O)[C@H](CSSC[C@H](NC(=O)[C@@H](N)Cc4ccc(O)cc4)C(=O)N[C@@H](CCC(N)=O)C(=O)N[C@@H](CCCCN)C(=O)N[C@@H](Cc4c[nH]c5ccccc45)C(=O)N[C@@H](CCSC)C(=O)N[C@@H](Cc4c[nH]c5ccccc45)C(=O)N[C@@H]([C@@H](C)O)C(=O)N3)NC2=O)C(=O)N[C@@H](CCCCN)C(=O)N[C@@H](CC(C)C)C(=O)N[C@@H](Cc2c[nH]c3ccccc23)C(=O)N1)[C@@H](C)CC)C(N)=O` [compound 37] showed an IC50 [4] of 0.033 µM, an IC50 [5] of 0.11 µM and an IC50 [6] of 0.13 µM. It also gave an IC50 [7] of 2.2 µM.
`CC[C@H](C)[C@H](NC(=O)[C@@H](NC(=O)[C@H](CCCCN)NC(=O)[C@H](CCCNC(=N)N)NC(=O)[C@@H]1CSSC[C@@H]2NC(=O)[C@H](C)NC(=O)[C@H](CCCNC(=N)N)NC(=O)[C@H](CCCCN)NC(=O)[C@H](CO)NC(=O)[C@H](CC(=O)O)NC(=O)[C@@H]3CSSC[C@H](NC(=O)[C@H](CCCNC(=N)N)NC(=O)[C@H](CC(C)C)NC(=O)CNC(=O)[C@H](CCC(=O)O)NC(=O)[C@H](CSSC[C@H](NC(=O)[C@@H](N)Cc4ccc(O)cc4)C(=O)N[C@@H](CCC(N)=O)C(=O)N[C@@H](CCCCN)C(=O)N[C@@H](Cc4c[nH]c5ccccc45)C(=O)N[C@@H](CCSC)C(=O)N[C@@H](Cc4c[nH]c5ccccc45)C(=O)N[C@@H]([C@@H](C)O)C(=O)N3)NC2=O)C(=O)N[C@@H](CCCCN)C(=O)N[C@@H](Cc2cccc3ccccc23)C(=O)N[C@@H](Cc2c[nH]c3ccccc23)C(=O)N1)[C@@H](C)CC)C(N)=O` [compound 42] gave an IC50 [4] of 0.05 µM, an IC50 [5] of 0.17 µM and an IC50 [6] of 0.17 µM. For the same molecule, the IC50 [7] was 1.5 µM.
Work on `CSCC[C@@H]1NC(=O)[C@H](Cc2c[nH]c3ccccc23)NC(=O)[C@H](CCCCN)NC(=O)[C@H](CCC(N)=O)NC(=O)[C@@H](NC(=O)[C@@H](N)Cc2ccc(O)cc2)CSSC[C@@H]2NC(=O)[C@@H]3CSSC[C@@H](C(=O)N[C@@H](CCCCN)C(=O)N[C@@H](Cc4ccc(O)cc4)C(=O)N[C@@H](CC(N)=O)C(=O)N[C@@H](CC(C)C)C(N)=O)NC(=O)[C@H](Cc4c[nH]c5ccccc45)NC(=O)[C@H](CC(C)C)NC(=O)[C@H](CCC(=O)O)NC(=O)[C@H](CSSC[C@H](NC(=O)[C@H]([C@@H](C)O)NC(=O)[C@H](Cc4c[nH]c5ccccc45)NC1=O)C(=O)N[C@@H](CC(=O)O)C(=O)N[C@@H](CO)C(=O)N[C@@H](CCC(=O)O)C(=O)N[C@@H](CCCNC(=N)N)C(=O)N[C@@H](CCCCN)C(=O)N3)NC(=O)[C@H](C(C)C)NC(=O)[C@H](Cc1ccc(O)cc1)NC(=O)CNC(=O)[C@H](CCC(=O)O)NC2=O` [compound 48] yielded an IC50 [5] of 1.8 µM, an IC50 [6] of 2.4 µM and an IC50 [8] of 7460 nM. The IC50 ([9]; tonic, Table 11) was 321 nM and the IC50 [7] was greater than 5 µM.
`CSCC[C@H](NC(=O)[C@H](CC(N)=O)NC(=O)[C@H](Cc1ccc(O)cc1)NC(=O)[C@H](CCCCN)NC(=O)[C@@H]1CSSC[C@@H]2NC(=O)[C@H](CCCCN)NC(=O)[C@H](CCCNC(=N)N)NC(=O)[C@H](CCC(=O)O)NC(=O)[C@H](CO)NC(=O)[C@H](CC(=O)O)NC(=O)[C@@H]3CSSC[C@H](NC(=O)[C@H](C(C)C)NC(=O)[C@H](Cc4ccc(O)cc4)NC(=O)CNC(=O)[C@H](CCC(=O)O)NC(=O)[C@H](CSSC[C@H](NC(=O)[C@@H](N)Cc4ccc(O)cc4)C(=O)N[C@@H](CCC(N)=O)C(=O)N[C@@H](CCCCN)C(=O)N[C@@H](Cc4c[nH]c5ccccc45)C(=O)N[C@@H](CCSC)C(=O)N[C@@H](Cc4c[nH]c5ccccc45)C(=O)N[C@@H]([C@@H](C)O)C(=O)N3)NC2=O)C(=O)N[C@@H](CCC(=O)O)C(=O)N[C@@H](CC(C)C)C(=O)N[C@@H](Cc2c[nH]c3ccccc23)C(=O)N1)C(N)=O` [compound 430] gave an IC50 [4] of 0.33 µM, an IC50 [6] greater than 5 µM and a Nav1.4/Nav1.7 ([6]; ratio of IonWorks Quattro IC50 values) of 15. The IC50 [7] was greater than 5 µM.
In the case of `C#CC[C@H](N)C(=O)N[C@@H](Cc1ccc(O)cc1)C(=O)N[C@H]1CSSC[C@@H]2NC(=O)[C@@H]3CSSC[C@@H](C(=O)N[C@@H](CCCNC(=N)N)C(=O)N[C@@H](CCCCN)C(=O)N[C@@H](CCC(=O)O)C(=O)N[C@H](C(N)=O)[C@@H](C)CC)NC(=O)[C@H](Cc4c[nH]c5ccccc45)NC(=O)[C@H](CC(C)C)NC(=O)[C@H](CCC(=O)O)NC(=O)[C@H](CSSC[C@H](NC(=O)[C@H]([C@@H](C)O)NC(=O)[C@H](Cc4c[nH]c5ccccc45)NC(=O)[C@H](CCCC)NC(=O)[C@H](Cc4c[nH]c5ccccc45)NC(=O)[C@H](CCCCN)NC(=O)[C@H](CCC(N)=O)NC1=O)C(=O)N[C@@H](CC(=O)O)C(=O)N[C@@H](CO)C(=O)N[C@@H](CCCCN)C(=O)N[C@@H](CCCNC(=N)N)C(=O)N[C@@H](C)C(=O)N3)NC(=O)[C@H](CCCNC(=N)N)NC(=O)[C@H](CC(C)C)NC(=O)CNC(=O)[C@H](CCC(=O)O)NC2=O` [compound 722], the IC50 [10] is reported as greater than 10000 nM, the IC50 ([2]; Table 12, PatchXpress, tonic block) is reported as 22.6 nM and the IC50 ([2]; Table 15) is reported as 22.6 nM. For the same molecule, the IC50 ([9]; Table 12, tonic block) was greater than 10000 nM.
For `C#CC[C@H](N)C(=O)N[C@@H](Cc1ccc(O)cc1)C(=O)N[C@H]1CSSC[C@@H]2NC(=O)[C@@H]3CSSC[C@@H](C(=O)N[C@@H](CCCNC(=N)N)C(=O)N[C@@H](CCCCN)C(=O)N[C@@H](CCC(=O)O)C(=O)N[C@H](C(N)=O)[C@@H](C)CC)NC(=O)[C@H](Cc4c[nH]c5ccccc45)NC(=O)[C@H](CC(C)C)NC(=O)[C@H](CCCCN)NC(=O)[C@H](CSSC[C@H](NC(=O)[C@H]([C@@H](C)O)NC(=O)[C@H](Cc4c[nH]c5ccccc45)NC(=O)[C@H](CCCC)NC(=O)[C@H](CCc4ccccc4)NC(=O)[C@H](CCCCN)NC(=O)[C@H](CCC(N)=O)NC1=O)C(=O)N[C@@H](CC(=O)O)C(=O)N[C@@H](CO)C(=O)N[C@@H](CCCCN)C(=O)N[C@@H](CCCNC(=N)N)C(=O)N[C@@H](C)C(=O)N3)NC(=O)[C@H](CCCNC(=N)N)NC(=O)[C@H](CC(C)C)NC(=O)CNC(=O)[C@H](CCC(=O)O)NC2=O` [compound 844], the IC50 [10] was 998 nM.
